For 111 molecules, z-score results are on record in PubChem BioAssay AID488969 (Vanderbilt High Throughput Screening Facility, 2010).

In all, about 110,000 compounds were measured (“z-score”: median about -0.1, highest 2% from about 2 on). This is one part of the list. Activity calls are given as the source filed them.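 Rule for the calls: active = z-score in the third read window above 3 or below -3; inactive = the rest.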

For this test, the target named is Metabotropic glutamate receptor 8 (Rattus norvegicus) (UniProt P70579). The experiment in a line: rat mGluR8 modulators via GIRK flux, primary screen, cell-based, thallium flux, HTS (AID 488969). Particulars: HEK293 rat mGluR8, GIRK (G protein-gated inwardly rectifying potassium channel) thallium flux, FluoZin2; at 10 µM; stronger effect = higher value; submaximal glutamate (EC20) added with thallium.
UniProt P70579, sequence (P70579 whole entry, looked up): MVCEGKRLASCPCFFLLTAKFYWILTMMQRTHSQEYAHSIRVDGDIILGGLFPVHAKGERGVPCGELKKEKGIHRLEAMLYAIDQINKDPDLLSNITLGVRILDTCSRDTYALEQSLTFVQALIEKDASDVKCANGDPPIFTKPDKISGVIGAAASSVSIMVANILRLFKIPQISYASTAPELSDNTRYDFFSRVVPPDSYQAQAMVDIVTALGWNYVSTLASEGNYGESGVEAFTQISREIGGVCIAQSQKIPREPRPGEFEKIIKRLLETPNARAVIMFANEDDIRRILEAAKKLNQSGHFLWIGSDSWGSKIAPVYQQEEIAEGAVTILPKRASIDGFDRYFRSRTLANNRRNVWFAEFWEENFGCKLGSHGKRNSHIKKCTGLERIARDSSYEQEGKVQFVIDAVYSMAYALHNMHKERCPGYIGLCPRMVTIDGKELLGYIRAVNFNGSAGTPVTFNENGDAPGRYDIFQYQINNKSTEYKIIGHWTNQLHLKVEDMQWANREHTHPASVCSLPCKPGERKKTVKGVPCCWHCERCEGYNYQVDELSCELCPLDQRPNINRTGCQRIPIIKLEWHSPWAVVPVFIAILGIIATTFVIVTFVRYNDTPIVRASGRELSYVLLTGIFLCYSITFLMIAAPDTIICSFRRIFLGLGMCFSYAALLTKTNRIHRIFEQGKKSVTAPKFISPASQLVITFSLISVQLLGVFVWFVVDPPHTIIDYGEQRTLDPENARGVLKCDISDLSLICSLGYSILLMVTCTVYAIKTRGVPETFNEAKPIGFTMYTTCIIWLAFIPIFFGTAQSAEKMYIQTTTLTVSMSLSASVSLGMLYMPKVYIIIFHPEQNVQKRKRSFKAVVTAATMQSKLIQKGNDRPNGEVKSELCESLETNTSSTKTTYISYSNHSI
`CCCCCOc1ccc(C(=O)C(c2ccccc2)N2CCOCC2)cc1` (stereo unspecified) yielded a z-score of 0.204.
With `Cc1cc(C)n(CCC(=O)N/N=C/c2ccc(O)cc2O)n1`, the z-score came out at 0.202.
Then `O=C(Nc1ccc(N2CCOCC2)nc1)c1ccc(Cl)cc1`, with -0.00174; and `Cc1ccc2cc3cc(C(=O)NCCC(C)C)oc3nc2c1`, with -0.127.
Then `CCC(=O)N1CCc2cc(S(=O)(=O)NCCCN(CC)Cc3ccccc3)ccc21`, with -0.213; and `COc1cc(NC(=O)c2cc(-c3cccc(O)c3)on2)cc(OC)c1OC`, with 0.445.
In the case of `CCCOc1ccc(N2C(=O)CC(N3CCC(O)(c4cccc(C(F)(F)F)c4)CC3)C2=O)cc1` (stereo unspecified), the z-score is -1.24.
Then `CCOC(=O)C1CCN(c2ccc(C(=O)O)cc2[N+](=O)[O-])CC1`, with 0.0759; and `C/C=C/c1ccc(OCC(=O)OCc2csc(Nc3ccc(C)cc3)n2)c(OC)c1`, with -0.254.
Consider `CCOC(=O)n1c(=O)oc2ccc(Cl)cc21`, for which the z-score was 0.192.
The value for `CSc1nc(Oc2ccc(F)cc2)c2ccccc2n1` was -0.0318; that for `CCCn1c(SCC(=O)N2c3ccccc3Sc3ccccc32)nc2ccccc21` was -0.0447; that for `Cc1c(C(=O)O)sc2nc3n(c(=O)c12)CCCCC3` was 0.273.
The value for `CCn1nc(C(=O)NNC(=O)COc2ccc(OC)cc2)c2ccccc2c1=O` was -0.00775.
As to `CC(=O)Nc1nc(-c2ccc(Br)s2)cs1`, the z-score was found to be 0.29.
The value for `O=C(Nc1cccc(Cl)c1)N(Cc1nc2ccccc2c(=O)[nH]1)Cc1cccs1` was 0.103; that for `N=c1n(Cc2ccccc2)c2ccccc2n1CC(O)COc1ccccc1` (stereo unspecified) was 0.257; that for `O=C(OCCNC(=O)c1ccc2ccccc2n1)c1ccc(F)cc1` was -0.612.
Then `Nc1ccc(-c2nc3ccc([N+](=O)[O-])cc3[nH]2)cc1`, with -0.169.
Then `COc1ccc(C(=O)COc2cccc(NC(=O)c3ccco3)c2)cc1`, with -0.402; and `O=C(COc1ccccc1Br)N1CCN(c2ccccc2)CC1`, with 0.00637.
Regarding `CSc1nnc(Cn2c(=O)sc3ccccc32)n1-c1ccccc1`, the z-score was 0.501.
`Cn1c(Cc2ccccc2)nnc1SCC(=O)N1CCOCC1` yielded a z-score of 0.0882.
The value for `O=S(=O)(c1ccc(Br)s1)n1cccn1` was 0.875; that for `COc1ccc(OCC(=O)NNC(=O)c2cccs2)cc1` was 0.919; that for `C/C(=N/OCO/N=C(\C)c1ccccc1)c1ccccc1` was 0.194.
Then `CC1CCN(CCCCOc2ccccc2-c2ccccc2)CC1`, with 0.189; and `COc1ccc(NC(C)=O)cc1NC(C)C(=O)Nc1ccc(F)cc1` (stereo unspecified), with 0.0371.
Then `COC(=O)CCCCC(=O)C1C(=O)CC(C)(C)C(C(=O)OC)C1=O` (stereo unspecified), with -0.00816.
Turning to `CC(=O)N1CCC(N(CCN2CCOCC2)C(=S)Nc2cc(C)ccc2C)CC1`, the z-score is -0.0971.
On to `Cc1ccccc1NC(=O)c1ccccc1NS(=O)(=O)c1cccc2cccnc12`, for which the z-score is -0.0166.
Then `COc1ccc(NC(=O)Cn2c(=O)n(-c3ccccc3)c(=O)c3oc4ccccc4c32)c(OC)c1`, with -0.212.
Then `COc1ccc(C(=O)/C=C/Nc2ccc(S(=O)(=O)Nc3nc(C)cc(C)n3)cc2)cc1OC`, with -0.234; and `Cn1c(Cc2ccccc2)nnc1SCC(=O)Nc1ccccc1N1CCOCC1`, with -0.301; and `CCOc1ccc(CNn2nnnc2N)cc1`, with 0.553.
The value for `CC(C)NC(=O)CSc1nnc(-c2ccc(C(C)(C)C)cc2)n1C` was 0.122; that for `Cc1cccc(C)c1NC(=O)CCCSc1nnc(-c2ccco2)n1-c1ccccc1` was -0.675.
With `O=C(C[n+]1cccc2ccccc21)c1ccccc1`, the z-score was -0.217.
The value for `COc1cc(NC(=O)C2CCCN(c3ncccn3)C2)cc(OC)c1` (stereo unspecified) was 0.815.
Then `COC(=O)Cn1nc(-c2ccc(C)c(S(=O)(=O)N(C)C)c2)c2ccccc2c1=O`, with 0.444; and `CCC(=O)N1CCCc2cc(S(=O)(=O)N3CCCc4ccccc43)ccc21`, with -1.28; and `O=[N+]([O-])c1ccc2n[nH]nc2c1`, with -0.0156.
The value for `CCC1(c2ccc(Cl)cc2)NC(=S)N(c2ccccc2)N1` (stereo unspecified) was active: 4.78; that for `CC(C)N=Cc1c(O)[nH]c2ccccc12` was 0.105.
As to `CC(C)c1cccc(C(C)C)c1OCCCCN1CCCC1`, the z-score came to 0.931.
The value for `C=CCNC(=O)c1c(-c2c(F)cccc2Cl)noc1C` was -0.0316; that for `Cc1noc(C)c1CN1C(=O)NC(Cc2ccccc2)(Cc2ccccc2)C1=O` was 1.87; that for `CCOc1ccc(S(=O)(=O)NCc2ccccn2)cc1` was -0.111.
The value for `COc1ccc(NS(=O)(=O)c2cccc3nsnc23)cc1OC` was 0.0859.
Regarding `CCN(CC)S(=O)(=O)c1cccc(C(=O)N[C@H](C(=O)OCC(=O)Nc2ccccc2)C(C)C)c1`, the z-score is -1.43.
Then `CC1(C)CC(=O)C=C(NNC(=O)c2ccccc2O)C1`, with -0.267; and `Nc1ccc(S(=O)(=O)NC2(C(F)(F)F)NC(=O)N(c3ccccc3Cl)C2=O)cc1` (stereo unspecified), with -0.371; and `Cn1c(-c2c(N)n(CCc3ccccc3)c3nc4ccccc4nc23)nc2ccccc21`, with -0.429.
On to `CC1(C)CC(=O)C2=C(C1)N(Cc1cccnc1)C(=O)C2(NC(=O)c1ccc(F)cc1)C(F)(F)F` (stereo unspecified), for which the z-score is -0.0605.
The value for `CCN(C(=O)c1ccco1)c1nc(CC(=O)Nc2ccc(Cl)cc2)cs1` was -0.635.
Then `COc1ccc(/C=C2\OC(=O)c3c(OC)cccc32)cc1OC`, with 0.0754; and `Cc1ccc(-c2noc(-c3ccccc3C(=O)N3CCCC3)n2)cc1`, with -0.628; and `COc1ccc(CN(CC(=O)NCC2CCCO2)C(=O)CCC(=O)Nc2cc(C)ccn2)cc1` (stereo unspecified), with -0.0534.
For the molecule `O=C(CN(C(=O)CNS(=O)(=O)c1ccccc1)c1ccc2c(c1)OCCO2)NCc1ccco1`, the z-score is -1.1.
The value for `NC(=O)Nn1c(CCC(=O)O)ccc1-c1ccc(Br)cc1` was -0.193; that for `O=C(CSCc1ccccc1)N1CCc2ccccc21` was -0.196.
The value for `COC(=O)c1ccccc1OC(=O)c1cccnc1` was -0.23; that for `Cc1ccc(N2C(=O)CC(NNc3nc4ccccc4s3)C2=O)cc1C` (stereo unspecified) was 9.02e-05; that for `NC(=O)c1ccccc1NS(=O)(=O)c1ccc2c(c1)OCCO2` was -0.0146.
Then `O=C(COC(=O)c1ccccn1)Nc1ccc(S(=O)(=O)N2CCOCC2)cc1`, with 0.194; and `CC(C)[C@H](NC(=O)NCCc1ccccc1)C(=O)O`, with 0.184; and `CNC(=O)/C(=C\c1ccc2c(c1)OCO2)NC(=O)c1ccc(Br)cc1`, with -0.105.
Take `CCOc1ccccc1C(=O)NCCCCCC(=O)O`: the z-score was -0.0332.
Then `CC1Cn2c(nnc2-c2ccccc2O)S1` (stereo unspecified), with -0.365; and `CCOC(=O)CCc1c(C)c2ccc(OCC(=O)N(CC)CC)c(C)c2oc1=O`, with -0.0102; and `CCn1c(Cc2ccccc2)nnc1SCC(=O)NC1CC1`, with -0.232.
The value for `CS(=O)(=O)Nc1ccc(C(=O)NCCc2ccccc2)cc1` was -0.541; that for `CCOc1ccccc1C(=O)N1CCC(n2nnc3cc(C)ccc32)CC1` was -0.309; that for `O=[N+]([O-])c1cc(S(=O)(=O)N2CCCC2)ccc1NN=C1CCCC1` was -0.43.
The value for `COc1cc(NC(=O)COc2c(C)cc(C)cc2[N+](=O)[O-])c(OC)cc1Cl` was -0.148; that for `COc1cccc(NC(=O)C2CC(=O)N=C(N)S2)c1` (stereo unspecified) was 0.56.
As for `CC1CCCCC12NC(=O)N(CC(=O)c1ccc[nH]1)C2=O` (stereo unspecified), the z-score was found to be 1.05.
On to `CCCCN(CCCC)S(=O)(=O)c1ccc(NS(=O)(=O)c2ccc(NC(C)=O)cc2)cc1`, for which the z-score was -0.173.
Molecule `Nc1nnc(CC(c2ccccc2)c2ccccc2)s1` gave a z-score of 0.186.
Then `CCOc1ccc2[nH]c(=O)c(C(c3nnnn3Cc3ccco3)N3CCC(C)CC3)cc2c1` (stereo unspecified), with -0.251.
Then `Cc1ccc(S(=O)(=O)NCCCCC(NC(=O)OC(C)(C)C)C(=O)O)cc1` (stereo unspecified) (tested in a mixture with another compound), with -0.148; and `N/C(=N\O)c1ccc(NC(=O)c2ccc(Br)o2)cc1`, with 0.000467.
The value for `CCCCCCCCCSc1n[nH]c(N)n1` was 0.431; that for `O=C(Nc1ccc(F)c(F)c1)c1cnc(-c2ccccc2)nc1-c1ccccc1` was -0.226.
`CC/C(=N\NC(=O)c1ccc2c(c1)OCO2)C12CC3CC(CC(C3)C1)C2`: the z-score is 1.44.
Then `CC1C(=O)CCN(C(C)C)C1C` (stereo unspecified), with 0.228; and `CCOC(=O)c1[nH]c(C)c(/C(O)=C2\C(=O)C(=O)N(CCCN(C)C)C2c2ccncc2)c1C` (stereo unspecified), with -0.219; and `CC(=O)N1CCC(N(C(=O)Nc2ccc(C)c(C)c2)C2CCCC2)CC1`, with 0.349.
In turn, `N#CCCN1CCn2c1nc1ccccc12` came in with a z-score of 0.182.
Then `COc1ccc(OC)c(-n2c(CNC3CCN(Cc4ccccc4)CC3)nc3ccccc3c2=O)c1`, with -0.0341.
As to `COc1ccc(C(=O)N(CN2CCCC2=O)c2cc(C)on2)cc1OC`, the z-score was 0.804.
`CC(C)(C)C(=O)NCCN1CCN(C(=O)C(C)(C)C)CC1` returned a z-score of 0.576.
Then `O=C(NC(=S)Nn1cnc2c(cnn2-c2ccccc2)c1=O)c1ccccc1`, with -0.101.
The value for `O=C(CN1C(=O)c2ccccc2C1=O)Nc1ccc2c(c1)OCO2` was -0.335; that for `COc1ccc(/C=N/NC(=O)c2cccc([N+](=O)[O-])c2)cc1OS(=O)(=O)c1ccc(C)cc1` was -0.246; that for `O=C(c1ccc(Cl)cc1)C1CCN(C(=O)C2CC2)CC1` was 0.108.
The value for `CC(Oc1ccc(Cl)cc1Cl)c1nc(-c2ccccn2)no1` (stereo unspecified) was 0.332; that for `COC(=O)CCSc1nccn1Cc1ccccc1` was -0.124; that for `COc1ccc(N2C(=O)C3CC(C)=C(C)CC3C2=O)c(OC)c1` (stereo unspecified) was 0.0697.
For the molecule `O=c1oc2ccccc2c(Nc2cccc3ccccc23)c1[N+](=O)[O-]`, the z-score is -0.861.
The value for `CCOc1ccc(NC(=O)c2cc3c(C)nc4ccccc4c3o2)cc1` was -0.286; that for `O=C(CNC(=O)c1cccs1)NCC(=O)OCc1cccc(Cl)c1` was 0.192; that for `CC(C)C(c1nnnn1C1CCCC1)N1c2ccccc2CC1C` (stereo unspecified) was -1.44.
The value for `Cc1ccc(-c2nn3c(C)nnc3s2)cc1NC(=O)C(C)C` was -0.144; that for `CCN1C(=O)/C(=C\c2ccncc2)SC1=Nc1ccc(C)c(C)c1` was -0.266.
The value for `COc1ccc(-c2noc(-c3cc(C)cc(C)c3)n2)cc1OC` was 0.138; that for `Cc1c(C(=O)NCc2ccc3c(c2)OCO3)oc2ccc(S(=O)(=O)N3CCC(C)CC3)cc12` was 0.415; that for `COc1ccc(-c2nnc(SCC(=O)NC3CCCCC3)o2)cc1OC` was -0.0736.
As to `CCOC(=O)C(Cc1ccccc1)NC(C)=O` (stereo unspecified), the z-score was -0.16.
Then `COc1cc(OC)cc(C(=O)NCc2nc(-c3ccccc3)no2)c1`, with -0.942; and `CCCCSc1nc2c(cnn2-c2ccc(Cl)cc2)c(=O)[nH]1`, with 0.0662.
